# Source: PubChem BioAssay AID485344 (National Center for Advancing Translational Sciences (NCATS), 2010)
# Screen size: about 340,000 compounds; about 6,900 (2%) were called active. Cut-off read from the data, not from the text of the source: active = inhibition above about 30%; inactive = below that, where a call was filed. This is a selection; strong and weak results do not stand in their true shares. The source gives no active or inactive call for entries shown without one.
# Molecular target: D(2) dopamine receptor (Homo sapiens) (UniProt P14416)
# Chain of UniProt P14416 (P14416 whole entry, looked up): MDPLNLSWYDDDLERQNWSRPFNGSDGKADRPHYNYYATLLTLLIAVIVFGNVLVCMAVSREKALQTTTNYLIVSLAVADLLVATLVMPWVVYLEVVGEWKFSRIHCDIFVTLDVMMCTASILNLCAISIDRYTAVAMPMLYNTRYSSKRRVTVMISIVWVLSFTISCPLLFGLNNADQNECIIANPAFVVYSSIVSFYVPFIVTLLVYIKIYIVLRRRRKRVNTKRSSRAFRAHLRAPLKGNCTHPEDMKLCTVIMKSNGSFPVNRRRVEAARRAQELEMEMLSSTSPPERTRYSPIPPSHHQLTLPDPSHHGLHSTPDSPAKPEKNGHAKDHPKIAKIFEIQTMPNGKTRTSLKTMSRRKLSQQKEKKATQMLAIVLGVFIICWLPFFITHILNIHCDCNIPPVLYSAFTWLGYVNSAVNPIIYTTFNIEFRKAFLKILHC
# Assay: HTS Assay for Allosteric Antagonists of the Human D2 Dopamine Receptor: Primary Screen for Antagonists; note: 0% is about no effect
# Conditions: HEK293 TREx D2 cells, calcium flux, dopamine EC80; at 10 µM; stronger effect = higher value
# Summary of the method: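 Tetracycline-induced HEK293 TREx cells expressing D2 receptor forced-coupled to calcium signalling, loaded with no-wash calcium dye. Compounds added and calcium flux read 180 s, then dopamine added at EC80 and read a further 180 s.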
row,Compound,inhibition
1,CCCN(C(=O)Cn1cnc2onc(-c3ccc(F)cc3)c2c1=O)c1cccc(Cl)c1,-2.39%
2,Cc1cc(C)n(-c2nc3ccccc3nc2Nc2cccc(C)c2C)n1,-12.8%
3,CCOc1ccc(CCNS(=O)(=O)c2cc(Br)cc3c2N(C(C)=O)CC3)cc1OCC,-8.2%
4,CN(CCC(=O)Nc1ccc(Cl)cc1)Cc1ccccc1,active: 45.2%
5,CCC(Sc1nc2ccccc2c(=O)n1CCc1ccc(OC)c(OC)c1)C(=O)N(CC)CC (stereo not given),21.5%
6,O=C(Nc1ccc(OC(F)(F)F)cc1)c1cc2ccccn2n1,-3.39%
7,O=c1nc2n(-c3ccccc3F)c3ccccc3cc-2c(=O)[nH]1,0.145%
8,COc1cc(OC)c(Nc2nc3ccc(C(=O)c4ccccc4)cc3n3c(C)nnc23)cc1Cl,-1.02%
9,CC(C)CCN1CCN(Cc2cccc(C(F)(F)F)c2)CC1CCO (stereo not given),active: 76.4%
10,CCCCn1cc2c(c1-c1ccc(Cl)cc1)c(=O)n(C)c(=O)n2C,25.4%
11,Cc1cc(C)cc(NS(=O)(=O)c2cc3c(cc2C)NC(=O)CO3)c1,22.1%
12,CS(=O)(=O)N(CC(O)Cn1c2ccccc2c2ccccc21)c1cccc2ccccc12 (stereo not given),active: 31.2%
13,Clc1ccc(-c2noc3ncnc(NCCc4ccccc4)c23)cc1,-24.9%
14,CCc1ccc(NC(=O)C2CCN(c3nn4c(=O)cc(C)nc4s3)CC2)cc1,13.7%
15,O=C(Nc1ccc2c(c1)CCCN2C(=O)c1cccs1)c1ccccc1Cl,12%
16,COc1ccc(Cl)cc1NC(=O)c1nn(-c2ccc(C)cc2)c(=O)n(C)c1=O,-11.4%
17,CCOC(=O)c1c(C)[nH]c(C)c1S(=O)(=O)N1CCCC(C(=O)N2CCN(c3cccc(C)c3C)CC2)C1 (stereo not given),3.35%
18,Cc1cccc(CNC(=O)CS(=O)(=O)c2cccc3nsnc23)c1,20.1%
19,COc1cc(NC(=O)Cn2cnc(S(=O)(=O)N3CCCC3)c2)cc(OC)c1OC,1.25%
20,CN1/C(=C/C=N/NC(=O)c2ccc([N+](=O)[O-])cc2)C(C)(C)c2ccccc21,active: 36.7%

row,Compound,inhibition
1,COCCNC(=O)c1cnc2sc(N3CCC(C)CC3)nn2c1=O,-8.89%
2,CCOC(=O)C1CCN(C(c2cccc(F)c2)c2c(O)cc(C)n(CCOC)c2=O)CC1 (stereo not given),6.41%
3,CCN(C(=O)c1cnc2ccc(C)cn2c1=O)c1ccccc1,5.35%
4,CCOC(=O)c1c(C)c(-c2ccccc2)n(CC(=O)NC2CCCCC2)c1C,5.13%
5,O=C(Cn1c(=O)nc(-c2ccccc2)c2cc(Cl)ccc21)N1CCN(c2ccc(F)cc2)CC1,9.71%
6,Cc1cccc(-c2nnc(C3CCN(S(=O)(=O)c4cccc(Cl)c4)CC3)o2)c1,7.65%
7,CCOc1cc2[nH]c(=O)n(Cc3ccc(C(=O)N4CCN(c5cccc(Cl)c5)CC4)cc3)c(=O)c2cc1OCC,15.7%
8,COc1cc(C2NC(=O)c3c(sc4c3CCN(C)C4)N2)cc(OC)c1OC (stereo not given),20.5%
9,CC(=O)CSc1nnc2[nH]c(=O)cc(N)n12,2.81%
10,Cn1nc(C(=O)Nc2ccc(F)c(Cl)c2)c2c1-c1ccccc1S(=O)(=O)C2,2.6%
11,CCc1ccc(CNC(=O)C2CCN(c3nn4cc(-c5ccc(F)cc5)nc4s3)CC2)cc1,-3.09%
12,Cc1nn(-c2ccccc2)c(C)c1NC(=O)COC(=O)[C@@H](NC(=O)c1ccccc1)C(C)C,active: 35.9%
13,CCOC(=O)c1c(C)[nH]c(C)c1S(=O)(=O)N(C)CC(=O)Nc1ccc(C)cc1C,1.81%
14,Cc1ccccc1NC(=O)Cc1nc(COC(=O)CNS(=O)(=O)c2cccc(Br)c2)cs1,active: 34.8%
15,Cc1cc(C)c2oc(-c3cccc(NC(=O)COc4ccc([N+](=O)[O-])cc4)c3)nc2c1,15.2%
16,Cc1ccc(NC(=O)Cn2c(=O)n(CC3CCCO3)c(=O)c3ccccc32)cc1 (stereo not given),-3.21%
17,Cc1ccc(Cl)cc1N1CCN(C(=O)c2ccc(CS(=O)(=O)c3ccccc3C)o2)CC1,-18.7%
18,COc1cc(C2CC(=O)Oc3c2c(=O)n(C)c2ccccc32)ccc1O (stereo not given),13.9%
19,COc1ccc(C(=O)NC2(C(F)(F)F)C(=O)Nc3c2c(=O)[nH]c(=O)n3CCc2ccc(OC)c(OC)c2)cc1 (stereo not given),-3.23%
20,CCOC(=O)C1CCN(S(=O)(=O)c2ccc3c(c2)N(C)C(=O)CC(=O)N3C)CC1,-18.5%

row,Compound,inhibition
1,COc1ccc(-c2cc(C(C)=O)c(C)n2CCC(=O)Nc2cc(Cl)ccc2C)cc1,-17.8%
2,Clc1cccc(CN2CCN(c3nc4nonc4nc3NC3CC3)CC2)c1,active: 37.7%
3,CCCCN(C(=O)C1CC(=O)N(c2ccc(C)cc2)C1)c1c(N)n(CCC)c(=O)[nH]c1=O (stereo not given),active: 37.9%
4,Cc1ccccc1CN1CCC(CNC(=O)c2c(C)oc3ncnc(N4CCCCC4)c23)CC1,-7.42%
5,CCOc1ccc(CCNC(=O)C2=C(C)C(=O)OC23CCCCC3)cc1,1.1%
6,CCC(Sc1nc(-c2ccccc2F)nc2c1Cc1c(CO)cnc(C)c1O2)C(=O)Nc1cc(C)ccc1C (stereo not given),18.9%
7,O=C(CCn1c(=O)c2cccn2c2cccnc21)NCc1ccc(F)cc1,8.73%
8,Fc1ccc(-c2noc3ncnc(NCc4ccc(Cl)cc4)c23)cc1,-10.7%
9,CN(Cc1ccccc1)C(=O)c1ccc2c(c1)N(Cc1ccccc1Cl)C(=O)c1ccccc1S2,-9.49%
10,CCc1ccccc1NC(=O)c1cnc(N2CCCCC2)c2ccccc12,23.6%
11,Cc1cc(=O)n(CC(=O)N2CCN(c3ccccc3F)CC2)c2c1c(C)nn2C,-1.79%
12,COc1cc(C(=O)NCC(c2cccs2)S(=O)(=O)c2cccs2)cc(OC)c1OC (stereo not given),1.43%
13,COc1ccc(-c2c3c(=O)n(C)c(=O)n(C)c3c3n2-c2ccccc2NC3c2ccco2)cc1 (stereo not given),-9.6%
14,CCOc1ccc(CCNC(=O)Cn2nc(CC)n3c(cc4ccccc43)c2=O)cc1,-6.8%
15,CCOC(=O)c1[nH]c(C)c(CCC(=O)Nc2cc(C)ccc2OC)c1C,-14.8%
16,CCn1cc([N+](=O)[O-])c(C(=O)Nc2ccc3c(c2)OCCO3)n1,active: 69.2%
17,Cc1ccc(Cl)cc1N1CCN(C(=O)c2ccc3c(c2)N(Cc2ccc(F)cc2)CCS3)CC1,6.19%
18,CCOc1cc(CNC(=O)c2ccc3c(c2)NC(=O)C2CCCCN32)cc(OCC)c1OCC (stereo not given),19.3%
19,CCOc1ccccc1OCCCn1c(-c2ccc(Cl)cc2)nc2ccccc2c1=O,-8.36%
20,Cc1cn2c(=O)cc(COC(=O)c3ccc(NC(=O)COc4ccccc4F)cc3)nc2s1,-20%
